Test results taken from the supplement of paper PMC10126150.
Sequences with one replicate were seen in a single cluster, so their values are uncertain.

Tested on: ATP
Assay: switch fluorescence ratio, 500 uM ATP over buffer (Cy3 cluster intensity, sum of 5 cycles each) (fold (ratio)); higher = stronger signal-on switching upon ATP binding; sequences stand for … in TCGTCGGCAGCGTCAGATGTGTATAAGAGACAGTTTTTTTTTTTTTTTTTTTTTTTTT…TC
Conditions: aptamer strand: ATP DNA aptamer (quencher-CACCTGGGGGAGTATTGCGGAGGAAGG + anchor), 100 nM annealed; ATP concentration: 500 uM; one replicate
In short: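 Imaging in selection buffer was followed by imaging after 15 min with 500 uM ATP at 22 °C, for Cy3-labelled switching-strand clusters annealed to 100 nM quencher-labelled ATP aptamer on a modified Illumina MiSeq flow-cell. Five of these buffer/ATP cycles ran, separated by NaOH stripping and re-annealing. The fluorescence ratio per cluster is summed target-cycle over summed buffer-cycle Cy3 intensity, averaged per switch-domain sequence; clusters outside 100-1000 RFU were removed.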
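Note: ATP exposure 15 min at 22 °C before imaging.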

Q: Which switch fluorescence ratio does the source give for GGCCTAATGC here?
A: 1

Q: How did the switch fluorescence ratio turn out when GGCCTACCCC was run?
A: 1.05

Q: How did the switch fluorescence ratio turn out when GGCCTAGAAA was run?
A: 0.997

Q: For GGCCTAGTCT, which switch fluorescence ratio is on record?
A: 1.19

Q: For GGCCTCCGAA, which switch fluorescence ratio is on record?
A: 2.17

Q: With GGCCTCTAAT as the sequence, how does the switch fluorescence ratio read?
A: 1.02

Q: How did the switch fluorescence ratio turn out when GGCCTGATGG was run?
A: 1.02

Q: How did the switch fluorescence ratio turn out when GGCCTGGAGC was run?
A: 0.949

Q: For GGCGAAACAT, which switch fluorescence ratio is on record?
A: 1

Q: How did the switch fluorescence ratio turn out when GGCGAACTTC was run?
A: 1.03

Q: GGCGAAGGCA was tested. Which switch fluorescence ratio did it give?
A: 0.979

Q: How did the switch fluorescence ratio turn out when GGCGACAGC was run?
A: 0.988

Q: Which switch fluorescence ratio does the source give for GGCGACAGTT here?
A: 1

Q: GGCGACCGCA was tested. Which switch fluorescence ratio did it give?
A: 1.03

Q: For GGCGACGCGT, which switch fluorescence ratio is on record?
A: 1.09

Q: Which switch fluorescence ratio does the source give for GGCGAGAAGG here?
A: 0.989

Q: For GGCGAGCCTC, which switch fluorescence ratio is on record?
A: 1.02

Q: How did the switch fluorescence ratio turn out when GGCGATTACT was run?
A: 1.05

Q: Which switch fluorescence ratio does the source give for GGCGCAGCTA here?
A: 0.981

Q: For GGCGCCGGTC, which switch fluorescence ratio is on record?
A: 0.953

Q: Which switch fluorescence ratio does the source give for GGCGCGAGTA here?
A: 1.04

Q: How did the switch fluorescence ratio turn out when GGCGCGATGC was run?
A: 1.39

Q: How did the switch fluorescence ratio turn out when GGCGCGATTT was run?
A: 1.1

Q: With GGCGCTATGT as the sequence, how does the switch fluorescence ratio read?
A: 1.01

Q: GGCGCTCCGG was tested. Which switch fluorescence ratio did it give?
A: 0.999

Q: With GGCGGAATCA as the sequence, how does the switch fluorescence ratio read?
A: 1.04

Q: For GGCGGACGTA, which switch fluorescence ratio is on record?
A: 1.06

Q: Which switch fluorescence ratio does the source give for GGCGGCGGAA here?
A: 1.02

Q: GGCGGCGGAT was tested. Which switch fluorescence ratio did it give?
A: 1.02

Q: How did the switch fluorescence ratio turn out when GGCGGGCACC was run?
A: 0.992

Q: GGCGGGGCCT was tested. Which switch fluorescence ratio did it give?
A: 1

Q: GGCGGGGCGC was tested. Which switch fluorescence ratio did it give?
A: 1.06

Q: For GGCGTAGTCC, which switch fluorescence ratio is on record?
A: 0.972

Q: GGCGTATGTA was tested. Which switch fluorescence ratio did it give?
A: 1

Q: GGCGTATTCT was tested. Which switch fluorescence ratio did it give?
A: 1.03

Q: For GGCGTCACGT, which switch fluorescence ratio is on record?
A: 1

Q: How did the switch fluorescence ratio turn out when GGCGTCCGAT was run?
A: 1.04

Q: For GGCGTGAGGA, which switch fluorescence ratio is on record?
A: 1.02

Q: GGCGTGTGCA was tested. Which switch fluorescence ratio did it give?
A: 1.01

Q: How did the switch fluorescence ratio turn out when GGCGTTTAGG was run?
A: 0.988

Q: With GGCTACAGCC as the sequence, how does the switch fluorescence ratio read?
A: 0.978

Q: Which switch fluorescence ratio does the source give for GGCTAGGCAT here?
A: 0.986

Q: With GGCTAGGCGT as the sequence, how does the switch fluorescence ratio read?
A: 1.02

Q: How did the switch fluorescence ratio turn out when GGCTATAGGA was run?
A: 0.954

Q: Which switch fluorescence ratio does the source give for GGCTCAAACG here?
A: 0.972

Q: With GGCTCAAGGG as the sequence, how does the switch fluorescence ratio read?
A: 0.985

Q: With GGCTCAGTAG as the sequence, how does the switch fluorescence ratio read?
A: 1.01

Q: GGCTCCAAGC was tested. Which switch fluorescence ratio did it give?
A: 0.988

Q: How did the switch fluorescence ratio turn out when GGCTCCACCG was run?
A: 1.22

Q: For GGCTCGTTCC, which switch fluorescence ratio is on record?
A: 1.02

Q: For GGCTCTCTTG, which switch fluorescence ratio is on record?
A: 0.979

Q: How did the switch fluorescence ratio turn out when GGCTCTTATC was run?
A: 1.05

Q: With GGCTCTTTAT as the sequence, how does the switch fluorescence ratio read?
A: 1

Q: GGCTGAAACA was tested. Which switch fluorescence ratio did it give?
A: 0.998

Q: Which switch fluorescence ratio does the source give for GGCTGACAGT here?
A: 0.957

Q: For GGCTGAGGTG, which switch fluorescence ratio is on record?
A: 1.13

Q: How did the switch fluorescence ratio turn out when GGCTGATACT was run?
A: 1.11

Q: How did the switch fluorescence ratio turn out when GGCTGCCCCA was run?
A: 1.04

Q: For GGCTGGTGAG, which switch fluorescence ratio is on record?
A: 1.02

Q: For GGCTGGTTA, which switch fluorescence ratio is on record?
A: 1.04

Q: With GGCTGTGACG as the sequence, how does the switch fluorescence ratio read?
A: 1

Q: How did the switch fluorescence ratio turn out when GGCTTCAATA was run?
A: 1

Q: Which switch fluorescence ratio does the source give for GGCTTCGTGA here?
A: 1.09

Q: For GGCTTCTGTG, which switch fluorescence ratio is on record?
A: 0.99

Q: For GGCTTGATTG, which switch fluorescence ratio is on record?
A: 0.98

Q: GGCTTTTGCA was tested. Which switch fluorescence ratio did it give?
A: 1.02

Q: Which switch fluorescence ratio does the source give for GGGAAACA here?
A: 1

Q: For GGGAAACACT, which switch fluorescence ratio is on record?
A: 1.02

Q: GGGAAAGACC was tested. Which switch fluorescence ratio did it give?
A: 1.42

Q: With GGGAAAGTAG as the sequence, how does the switch fluorescence ratio read?
A: 1

Q: Which switch fluorescence ratio does the source give for GGGAACCCGG here?
A: 1.01

Q: With GGGAACGTCT as the sequence, how does the switch fluorescence ratio read?
A: 0.941

Q: GGGAACTCAC was tested. Which switch fluorescence ratio did it give?
A: 1.16

Q: GGGAACTTTT was tested. Which switch fluorescence ratio did it give?
A: 0.956

Q: With GGGAAGAATC as the sequence, how does the switch fluorescence ratio read?
A: 0.976

Q: With GGGAAGGTAA as the sequence, how does the switch fluorescence ratio read?
A: 0.984

Q: For GGGAAGTAT, which switch fluorescence ratio is on record?
A: 0.997

Q: How did the switch fluorescence ratio turn out when GGGAATCACC was run?
A: 0.992

Q: With GGGAATCATA as the sequence, how does the switch fluorescence ratio read?
A: 1.01

Q: How did the switch fluorescence ratio turn out when GGGAATCGCA was run?
A: 1.02

Q: Which switch fluorescence ratio does the source give for GGGAATCTTA here?
A: 0.993

Q: For GGGAATTCAG, which switch fluorescence ratio is on record?
A: 0.988

Q: GGGACGGGAG was tested. Which switch fluorescence ratio did it give?
A: 0.973

Q: With GGGACTTTCG as the sequence, how does the switch fluorescence ratio read?
A: 0.968

Q: GGGAGAATGT was tested. Which switch fluorescence ratio did it give?
A: 0.999
